Reference: patent US20090054323A1 (published 2009)

Target: T1, human Ang-2 (human, UniProt O15123 19-496, limits assumed)
T1 construct: Sources differ by assay: R&D Systems 623-AN (mixture of 2 truncated versions) for initial screening; also called hAng-2; huAng-2
T1 sequence (looked up): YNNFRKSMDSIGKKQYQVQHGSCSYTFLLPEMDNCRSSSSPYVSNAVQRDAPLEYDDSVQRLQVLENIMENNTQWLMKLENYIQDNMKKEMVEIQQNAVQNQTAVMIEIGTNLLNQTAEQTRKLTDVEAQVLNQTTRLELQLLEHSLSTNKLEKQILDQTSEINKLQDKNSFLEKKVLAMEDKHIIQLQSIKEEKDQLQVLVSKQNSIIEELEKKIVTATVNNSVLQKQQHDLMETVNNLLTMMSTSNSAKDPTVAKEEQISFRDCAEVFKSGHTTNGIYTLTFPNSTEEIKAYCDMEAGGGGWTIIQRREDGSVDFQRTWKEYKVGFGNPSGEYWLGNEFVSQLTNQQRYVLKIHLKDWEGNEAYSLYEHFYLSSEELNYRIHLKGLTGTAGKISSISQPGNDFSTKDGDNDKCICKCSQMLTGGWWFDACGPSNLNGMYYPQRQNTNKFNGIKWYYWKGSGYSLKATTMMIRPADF
Test: neutralization ELISA vs Tie-2-Fc

B1: L1-5 (N) (Fc fusion)
chain: MGAQVKYKPLDELDEILYEQQTFQERLEGGGGG[human IgG1 Fc not written out]
**Q.** With B1 as the binder, how does the IC50 read?
**A.** The IC50 was 0.05 nM.

B2: L1-12 (N) (Fc fusion)
chain: MGAQYKFTPLDDLEQTLYEQWTLQHVLEGGGGG[human IgG1 Fc not written out]
**Q.** Which IC50 does the source give for B2 here?
**A.** The IC50 was 0.08 nM.

B3: L1-15 (N) (Fc fusion)
chain: MGAQQKYQPLDELDKTLYDQFMLQQGLEGGGGG[human IgG1 Fc not written out]
**Q.** How did the IC50 turn out when B3 was run?
**A.** The IC50 was 0.04 nM.

B4: L1-11 (N) (Fc fusion)
chain: MGAQQNFKPMDELEDTLYKQFLFQHSLEGGGGG[human IgG1 Fc not written out]
**Q.** B4 was tested. Which IC50 did it give?
**A.** The IC50 was 0.07 nM.

B5: L1-19 (N) (Fc fusion)
chain: MGAQQTFQPLDDLEEYLYEQWIRRYHLEGGGGG[human IgG1 Fc not written out]
**Q.** With B5 as the binder, how does the IC50 read?
**A.** The IC50 was 1.26 nM.

B6: L1-18 (N) (Fc fusion)
chain: MGAQQKFMPLDELDEILYEQFMFQQSLEGGGGG[human IgG1 Fc not written out]
**Q.** For B6, which IC50 is on record?
**A.** The IC50 was 0.16 nM.

B7: L1-17 (N) (Fc fusion)
chain: MGAQVKYKPLDELDEWLYHQFTLHHQLEGGGGG[human IgG1 Fc not written out]
**Q.** Which IC50 does the source give for B7 here?
**A.** The IC50 was 0.08 nM.

B8: L1-16 (N) (Fc fusion)
chain: MGAQQKFQPLDELEETLYKQWTLQQRLEGGGGG[human IgG1 Fc not written out]
**Q.** With B8 as the binder, how does the IC50 read?
**A.** Its IC50 is 0.11 nM.

B9: L1-C3 (N) (Fc fusion)
chain: MGAQTNFQPLDELDQTLYEQWTLQQRLEGGGGG[human IgG1 Fc not written out]
**Q.** B9 was tested. Which IC50 did it give?
**A.** Its IC50 is 0.06 nM.

B10: L1-14 (N) (Fc fusion)
chain: MGAQSNFMPLDELEQTLYEQFMLQHQLEGGGGG[human IgG1 Fc not written out]
**Q.** With B10 as the binder, how does the IC50 read?
**A.** The IC50 was 0.11 nM.

B11: L1-9 (N) (Fc fusion)
chain: MGAQSKFKPLDELEQTLYEQWTLQHALEGGGGG[human IgG1 Fc not written out]
**Q.** With B11 as the binder, how does the IC50 read?
**A.** The IC50 was 1.62 nM.

B12: L1-C2 (N) (Fc fusion)
chain: MGAQTKFQPLDELDQTLYEQWTLQQRLEGGGGG[human IgG1 Fc not written out]
**Q.** With B12 as the binder, how does the IC50 read?
**A.** Its IC50 is 0.05 nM.

B13: L1-22 (N) (Fc fusion)
chain: MGAQYKFNPMDELEQTLYEEFLFQHALEGGGGG[human IgG1 Fc not written out]
**Q.** For B13, which IC50 is on record?
**A.** The IC50 was 0.09 nM.

B14: L1-13 (N) (Fc fusion)
chain: MGAQQEYEPLDELDETLYNQWMFHQRLEGGGGG[human IgG1 Fc not written out]
**Q.** With B14 as the binder, how does the IC50 read?
**A.** The IC50 was 0.05 nM.

B15: L1-20 (N) (Fc fusion)
chain: MGAQEDYMPLDALDAQLYEQFILLHGLEGGGGG[human IgG1 Fc not written out]
**Q.** For B15, which IC50 is on record?
**A.** The IC50 was 0.09 nM.

B16: 12-9-1 (C) (Fc fusion)
chain: [human IgG1 Fc not written out]GGGGGAQGFEYCDGMEDPFTFGCDKQTLE
**Q.** How did the IC50 turn out when B16 was run?
**A.** Its IC50 is 1.84 nM.

B17: 12-9-5 (C) (Fc fusion)
chain: [human IgG1 Fc not written out]GGGGGAQLLDYCEGVQDPFTFGCENLDLE
**Q.** Which IC50 does the source give for B17 here?
**A.** Its IC50 is 1.56 nM.

B18: 12-9-4 (C) (Fc fusion)
chain: [human IgG1 Fc not written out]GGGGGAQAQDYCEGMEDPFTFGCEMQKLE
**Q.** With B18 as the binder, how does the IC50 read?
**A.** Its IC50 is 2.05 nM.

B19: 12-9-6 (C) (Fc fusion)
chain: [human IgG1 Fc not written out]GGGGGAQHQEYCEGMEDPFTFGCEYQGLE
**Q.** Which IC50 does the source give for B19 here?
**A.** Its IC50 is 0.95 nM.

B20: 12-9-2 (C) (Fc fusion)
chain: [human IgG1 Fc not written out]GGGGGAQKLEYCDGMEDPFTQGCDNQSLE
**Q.** Which IC50 does the source give for B20 here?
**A.** The IC50 was 8.42 nM.

B21: 12-9-C2 (C) (Fc fusion)
chain: [human IgG1 Fc not written out]GGGGGAQLQDYCEGVEDPFTFGCENQRLE
**Q.** B21 was tested. Which IC50 did it give?
**A.** Its IC50 is 1.41 nM.

B22: 12-9-7 (C) (Fc fusion)
chain: [human IgG1 Fc not written out]GGGGGAQMLDYCEGMDDPFTFGCDKQMLE
**Q.** For B22, which IC50 is on record?
**A.** The IC50 was 0.93 nM.

B23: 12-9-3 (C) (Fc fusion)
chain: [human IgG1 Fc not written out]GGGGGAQLQEWCEGVEDPFTFGCEKQRLE
**Q.** B23 was tested. Which IC50 did it give?
**A.** Its IC50 is 0.81 nM.

B24: 12-9 (C) (Fc fusion)
chain: [human IgG1 Fc not written out]GGGGGAQFDYCEGVEDPFTFGCDNHLE
notes: also called Parent: 12-9 (C)
**Q.** With B24 as the binder, how does the IC50 read?
**A.** Its IC50 is 15 nM.

B25: Con1-4 (C) (Fc fusion)
chain: [human IgG1 Fc not written out]GGGGGAQSGQLRPCEEIFGCGTQNLALLE
**Q.** How did the IC50 turn out when B25 was run?
**A.** The IC50 was 1.68 nM.

B26: Con1-6 (C) (Fc fusion)
chain: [human IgG1 Fc not written out]GGGGGAQGQDLRPCEDMFGCGTKDWYGLE
**Q.** How did the IC50 turn out when B26 was run?
**A.** The IC50 was 8.6 nM.

B27: Con1-1 (C) (Fc fusion)
chain: [human IgG1 Fc not written out]GGGGGAQAGGMRPYDGMLGWPNYDVQALE
**Q.** Which IC50 does the source give for B27 here?
**A.** Its IC50 is 3.08 nM.

B28: Con1-3 (C) (Fc fusion)
chain: [human IgG1 Fc not written out]GGGGGAQAPGQRPYDGMLGWPTYQRIVLE
**Q.** For B28, which IC50 is on record?
**A.** The IC50 was 16.4 nM.
